Hit rate of the full screen: of about 310,000 compounds, about 2,200 (0.71%) showed an effect of 50% or more. Effects have a minus sign here. The list shows a part of the results.
Molecular target: human ether-à-go-go-related gene (hERG) potassium channel (human, UniProt Q12809)
Assay: primary screen, population patch clamp on CHO cells stably expressing hERG

Chain of human ether-à-go-go-related gene (hERG) potassium channel (Q12809 whole entry, looked up): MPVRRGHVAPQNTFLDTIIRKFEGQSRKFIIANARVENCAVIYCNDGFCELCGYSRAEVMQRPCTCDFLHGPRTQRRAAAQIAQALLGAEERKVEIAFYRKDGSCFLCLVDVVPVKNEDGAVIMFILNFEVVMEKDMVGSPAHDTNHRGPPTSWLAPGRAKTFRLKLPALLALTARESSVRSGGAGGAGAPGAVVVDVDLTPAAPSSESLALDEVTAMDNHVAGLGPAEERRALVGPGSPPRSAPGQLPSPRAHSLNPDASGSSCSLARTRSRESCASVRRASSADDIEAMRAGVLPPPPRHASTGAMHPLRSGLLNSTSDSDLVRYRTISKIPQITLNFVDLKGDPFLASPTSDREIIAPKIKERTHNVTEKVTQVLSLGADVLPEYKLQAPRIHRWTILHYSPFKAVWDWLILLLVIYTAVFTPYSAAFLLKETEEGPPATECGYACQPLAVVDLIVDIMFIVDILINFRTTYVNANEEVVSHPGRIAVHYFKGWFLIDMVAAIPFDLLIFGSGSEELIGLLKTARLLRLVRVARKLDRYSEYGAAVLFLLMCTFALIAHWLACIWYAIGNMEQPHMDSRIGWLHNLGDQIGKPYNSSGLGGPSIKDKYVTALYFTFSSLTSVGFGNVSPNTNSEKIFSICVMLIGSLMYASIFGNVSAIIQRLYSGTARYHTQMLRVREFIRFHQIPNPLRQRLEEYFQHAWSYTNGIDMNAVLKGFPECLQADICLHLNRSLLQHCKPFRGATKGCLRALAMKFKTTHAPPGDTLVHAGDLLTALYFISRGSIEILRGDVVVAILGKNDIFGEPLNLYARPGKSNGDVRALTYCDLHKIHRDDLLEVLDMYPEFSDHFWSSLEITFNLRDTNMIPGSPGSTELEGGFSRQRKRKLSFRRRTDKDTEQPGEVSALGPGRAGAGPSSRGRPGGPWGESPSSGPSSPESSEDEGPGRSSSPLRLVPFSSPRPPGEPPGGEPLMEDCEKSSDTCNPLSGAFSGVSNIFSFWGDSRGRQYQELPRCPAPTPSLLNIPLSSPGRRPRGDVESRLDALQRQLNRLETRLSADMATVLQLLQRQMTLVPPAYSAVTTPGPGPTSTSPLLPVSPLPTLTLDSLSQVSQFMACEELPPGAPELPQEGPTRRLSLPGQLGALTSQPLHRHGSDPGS

Going from COc1cc(C(=O)OCC(=O)N2CCCC2)cc2c1OCCO2 to Cc1cccc(N(C)C(=O)CN2C(=O)COc3ccc(S(=O)(=O)N4CCCCCC4)cc32)c1, the “hERG current change (%, negative = inhibition) at 1uM” value rises from 11.2% to 20.8%.

Compared with COc1ccccc1CNS(=O)(=O)c1ccc(C)cc1, O=C(Nc1ccc(F)cc1)Nc1ccccc1F is higher in “hERG current change (%, negative = inhibition) at 1uM” value: 9.61% for the first, 13.5% for the second.

Going from Cc1ccc(O)c(NC(=O)C2CCCN2C(=O)OCc2ccccc2)c1 (stereo not shown) to COC(=O)c1ccccc1NC(=O)CNCCc1ccc(OC)c(OC)c1, the “hERG current change (%, negative = inhibition) at 1uM” value rises from 6.15% to 12.9%.

Going from Cc1cc(C(=O)OCC(=O)Nc2ccccc2F)c(C)o1 to CCCOc1ccc2cc(C(=O)NCc3ccccc3)c(=O)oc2c1, the “hERG current change (%, negative = inhibition) at 1uM” value rises from 4.48% to 17.5%.

Going from CCN(CC)S(=O)(=O)c1ccc2[nH]c(=O)cc(C(=O)NCc3ccccc3)c2c1 to CCN(CC)S(=O)(=O)c1ccc(=O)n(CC(=O)N2CCCc3cc(C)ccc32)c1, the “hERG current change (%, negative = inhibition) at 1uM” value falls from 14.2% to -0.402%.

Going from CCC1(c2ccc(F)cc2)NC(=O)N(CC(=O)Nc2ccccc2Cl)C1=O (stereo not shown) to COc1cc2ccccc2cc1C(=O)Nc1ccccc1Cl, the “hERG current change (%, negative = inhibition) at 1uM” value rises from 9.67% to 18.3%.

Compared with Cc1ccnc(NC(=O)CCC(=O)N(CC(=O)NC2CCCCC2)CC2CCCO2)c1 (stereo not shown), CCCNC(=O)C1CCCN(S(=O)(=O)c2ccc3c(c2)CC(C)N3C(=O)C2CC2)C1 (stereo not shown) is lower in “hERG current change (%, negative = inhibition) at 1uM” value: 6.01% for the first, 3.64% for the second.

First: Oc1c(Br)cc(/C=N/n2c(-c3ccccc3)n[nH]c2=S)c(Br)c1O
Second: COC(=O)c1nnn(-c2nonc2N)c1CN1CCc2ccccc21
The “hERG current change (%, negative = inhibition) at 1uM” value of the first is higher: 17.1% for the first, 11.5% for the second.

Compared with CCCc1ccc(OCC(O)CN2CCc3ccccc3C2)cc1.Cl (stereo not shown), Cc1cccc(N2CCN(C(=O)c3ccc(CNc4c(N5CCC(C)CC5)c(=O)c4=O)cc3)CC2C)c1 (stereo not shown) is higher in “hERG current change (%, negative = inhibition) at 1uM” value: -34.3% for the first, 12% for the second.

Going from CCC(C)Sc1nnc(-c2c[nH]c3ccccc23)n1CCOC (stereo not shown) to CCCn1nnc(NC(=O)c2ccc(-c3cccc(Cl)c3)o2)n1, the “hERG current change (%, negative = inhibition) at 1uM” value rises from -2.34% to 0.301%.

Compared with Cc1ccc(Sc2ccc(N)cc2C#N)cc1, Cc1ccc(-c2c(C)n([O-])c3c([n+]2=O)CCC3)cc1 is lower in “hERG current change (%, negative = inhibition) at 1uM” value: 5.85% for the first, -3.16% for the second.

Compared with S=C(c1ccc(-c2ccc(Cl)c(Cl)c2)o1)N1CCOCC1, Cc1nc2c3ccccc3nc(NNC(=O)CCC(=O)N3CCCC(C)C3)n2n1 (stereo not shown) is higher in “hERG current change (%, negative = inhibition) at 1uM” value: 10.8% for the first, 16.9% for the second.

For CCCCn1c(=O)c(C=Nc2cccnc2Cl)c(O)n(CCCCl)c1=O, the “hERG current change (%, negative = inhibition) at 1uM” value was -0.359%.

From paper PMC4336329 (PLoS ONE, 2015)
